Data taken from PubChem BioAssay (Tox21).
“And” between values parts separate entries of the source, which are not always exact repeats. Equal entries are not always repeated. The inconclusive results got no clear call from the source; some entries with a clear call stand among them for comparison. For part of these data: Where the call is inconclusive, the potency comes from a doubtful curve fit. Where a structure was tested more than once in an assay, its records may differ in their call. The source made the active and inactive calls. Unless noted, calls follow the shape of the dose curve; as a rule, active = well fitted curve in the direction sought with a large enough effect in the repeat runs; inconclusive = weak or mixed curves; inactive = no such curve, though single readings can be large; an effect the other way counts as inactive or inconclusive.

How the values were obtained:
[1] = qHTS assay for small molecules that induce genotoxicity in human embryonic kidney cells expressing luciferase-tagged ATAD5 (AID 651632); also: nearly all actives have a fitted effect of over 15% in size; also: potency is read from the fitted curve at half-maximal effect
Summary of the method: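 HEK293T cells carrying luciferase-tagged ATAD5 were given compound or DMSO vehicle and incubated 16 hr at 37C, 5% CO2. Luciferase activity was read after 30 min at room temperature with Amplite; a rise signals genotoxic stress.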

[2] = qHTS assay for small molecule disruptors of the mitochondrial membrane potential - cell viability (AID 720634; calls by dose curve; also: potency is read from the fitted curve at half-maximal effect; nearly all actives have a fitted effect of over 20% in size)
Summary of the method: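 HepG2 cells, 2,000 per well, attached overnight, then treated 1 hr at 37 C, 5% CO2. Viability read as ATP by CellTiter-Glo luminescence after 30 min at room temperature. Read in the same wells as the m-MPI membrane-potential dye assay.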

[3] = qHTS assay for small molecule disruptors of the mitochondrial membrane potential (AID 720635); conditions: HepG2 mitochondrial membrane potential, Mito-MPS dye ratio; series mostly up to 83.2 µM; also: potency is read from the fitted curve at half-maximal effect
Summary of the method: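 Mitochondrial membrane potential tracked with Mito-MPS dye, red aggregates (ex 540/em 590 nm) against green monomers (ex 490/em 535 nm). Compound treatment 1 hr at 37C, dye 30 min in HepG2.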

[4] = target: Glucocorticoid receptor (Homo sapiens) (UniProt P04150); assay: qHTS assay to identify small molecule antagonists of the glucocorticoid receptor (GR) signaling pathway (AID 720692; active = well fitted inhibition curve with a large enough effect in the signal ratio in the repeat runs, not every such curve was filed as active; inconclusive = weak or mixed curves, or effect the other way; inactive = no such curve, though single readings can be large or run the other way; the % refers to the signal ratio); conditions: GR-bla HeLa, beta-lactamase FRET ratio, dexamethasone-stimulated, 18 h; series mostly up to 58.5 µM
Sequence of UniProt P04150 (P04150 whole entry, looked up): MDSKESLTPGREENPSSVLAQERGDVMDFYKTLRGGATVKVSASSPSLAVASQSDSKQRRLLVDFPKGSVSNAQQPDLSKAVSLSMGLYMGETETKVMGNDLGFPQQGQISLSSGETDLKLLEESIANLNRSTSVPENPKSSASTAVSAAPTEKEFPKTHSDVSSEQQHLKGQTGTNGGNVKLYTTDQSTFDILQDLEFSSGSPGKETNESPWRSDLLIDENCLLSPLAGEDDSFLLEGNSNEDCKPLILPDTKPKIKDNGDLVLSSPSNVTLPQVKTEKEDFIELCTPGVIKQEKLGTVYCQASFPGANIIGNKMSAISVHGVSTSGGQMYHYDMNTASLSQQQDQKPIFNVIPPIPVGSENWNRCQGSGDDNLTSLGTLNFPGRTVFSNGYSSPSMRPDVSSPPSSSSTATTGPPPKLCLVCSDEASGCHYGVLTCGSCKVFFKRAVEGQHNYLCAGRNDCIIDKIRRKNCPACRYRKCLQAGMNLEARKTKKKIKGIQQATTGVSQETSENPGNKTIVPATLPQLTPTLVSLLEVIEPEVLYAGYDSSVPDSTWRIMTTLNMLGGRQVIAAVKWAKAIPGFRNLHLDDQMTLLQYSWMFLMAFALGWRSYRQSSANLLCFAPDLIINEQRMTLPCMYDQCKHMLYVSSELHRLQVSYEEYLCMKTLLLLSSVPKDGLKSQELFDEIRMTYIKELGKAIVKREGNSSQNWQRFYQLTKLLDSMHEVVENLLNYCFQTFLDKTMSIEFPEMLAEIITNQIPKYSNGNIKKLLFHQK
Summary of the method: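 GR-bla HeLa cells carrying a GRE-driven beta-lactamase reporter received compound after 4 h plating, then dexamethasone (5 nM final). After 18 h at 37C, the FRET substrate was loaded for 2 h at room temperature and fluorescence read.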

[5] = qHTS assay to identify small molecule antagonists of the glucocorticoid receptor (GR) signaling pathway - cell viability counter screen (AID 720693); conditions: GR-bla HeLa viability, CellTiter-Glo luminescence, 18 h, with 5 nM dexamethasone present; series mostly up to 58.5 µM; also: potency is read from the fitted curve at half-maximal effect; nearly all actives have a fitted effect of over 55% in size
[6] = qHTS assay for identifying genotoxic compounds that show differential cytotoxicity against isogenic chicken DT40 cell lines with known DNA damage response pathways - wild type cell line (AID 743012); conditions: DT40 wild type chicken cells viability, CellTiter-Glo, 40 h; activity change, negative = cytotoxicity: at 68.4 µM (top of the series) unless noted; also: nearly all actives have a fitted effect of over 60% in size; also: potency is read from the fitted curve at half-maximal effect
Summary of the method: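 Wild-type DT40 cells (300/well) exposed to compounds for 40 hours at 37 C/5% CO2. Viability read by CellTiter-Glo luminescence after 30 min at room temperature.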

[7] = qHTS assay for identifying genotoxic compounds that show differential cytotoxicity against isogenic chicken DT40 cell lines with known DNA damage response pathways - Rev3 mutant cell line (AID 743014); conditions: chicken DT40 Rev3-/- viability, CellTiter-Glo, 40 h; series mostly up to 68.4 µM; also: potency is read from the fitted curve at half-maximal effect; nearly all actives have a fitted effect of over 55% in size
[8] = qHTS assay for identifying genotoxic compounds that show differential cytotoxicity against isogenic chicken DT40 cell lines with known DNA damage response pathways - Rad54/Ku70 mutant cell line (AID 743015); conditions: DT40 Rad54/Ku70 mutant viability, CellTiter-Glo, 40 h; activity change, negative = cytotoxicity: at 66.8 µM (top of the series) unless noted; also: potency is read from the fitted curve at half-maximal effect; nearly all actives have a fitted effect of over 60% in size
Tags tell the direction and shape of the fitted curve or compound fluorescence and quenching.

| SMILES | Potency [1] | Potency [2] | Potency [3] | Potency [4] | Potency [5] | Potency [6] | Potency [7] | Potency [8] |
| --- | --- | --- | --- | --- | --- | --- | --- | --- |
| COC(=O)Nc1cccc(OC(=O)Nc2cccc(C)c2)c1 | inconclusive: 15.4 µM [activator, full curve, poor fit] | active: 7.7 µM and inconclusive: 6.11 µM [cytotoxic, partial curve, poor fit] | active: 2.73 µM and active: 3.86 µM | inactive | inconclusive: 19.5 µM [cytotoxic, partial curve] | inactive |  |  |
| c1ccc2sc(SNC3CCCCC3)nc2c1 | inconclusive: 29.8 µM [activator, partial curve, poor fit] | inconclusive: 34.4 µM [cytotoxic, partial curve, poor fit] | inconclusive: 7.5 µM [inhibitor, full curve, poor fit] and active: 67.8 µM and active: 54.5 µM |  |  | inconclusive: 33.5 µM [cytotoxic] | active: 61.1 µM | inconclusive: 33.5 µM [cytotoxic, single point] |
| CN(C1CCCCC1)C1CCCCC1 | inactive |  | inactive |  |  | inconclusive: 68.6 µM [cytotoxic, single point] |  |  |
| Nc1ccccc1C(=O)Oc1ccc2ccccc2c1 | active: 5.45 µM | inconclusive: 61.1 µM [cytotoxic, partial curve, poor fit] | active: 61.1 µM | inactive |  | inconclusive: 30.6 µM [cytotoxic, full curve] |  | inconclusive: 48.6 µM [cytotoxic, partial curve] |
